# Measured values published in the RNAGym collection of RNA variant scans (doi:10.7554/elife.90254).
# The source gives no read counts; variants with many changes may rest on few reads.
# B1: LINE1-mini (parent)
# chain: GGCAGAGCUCAACACAGCGUGGCAAAGUGGCUGUGGCUAGACUGCC
# Variants of: B1
# Assay: self-cleavage, relative activity (ratio to wild type); higher = more cleavage; in vitro, sequencing; the parent is a self-cleaving ribozyme
row,Variant,self-cleavage
1,GGUAGAUCUCCACACUCGGUGGCAAAGUGGCUGUGGCUAGCCUGCC,0.02
2,GGUAGAGCUCAACACAGCGUGGCAAAGUGGCUGAGGGUAGACUGCC,0.01
3,GGUAGAUCUCAACACACCGUGGCAAAGUGGCUUUGGCUAGAACGCC,0.11
4,GGUAGAGCUCAACACAGCGUGACGAAGUGGCUGUGGCUCGACUGCC,0.03
5,GGCCGCGCUAAACACAGCUUGGCAAAGUGGCUGUGGCUGGACUGCC,0.01
6,GGUAGAGCUCAACACAGCGUGGCAAAGUGGCAGUGGCUAGAGUGCC,0.16
7,GGUAGAGCUCAACACAGCGUGGCAAAGUGGCUGUGGCAAGACUACC,0.48
8,GGUAUAGCUCAACACACCGAGGCAAAAUGGCUGUGGCUCGACUGCU,0.04
9,GGUAGAGCUCAACACAGCGCGGCAAAGUUGCUGUCGUUAGACUGCA,0.02
10,GGUAGACCUCAACACAGCGUGGCAAAGUGGCUUUGGCUAGACUGCC,0.07
11,GGUAGAACUCAACACAGCGUGGCAAAGUGGCUGUGGCUAGACUGCU,0.15
12,GGUAGAGCUCAACACAGCGUGGCAAAGUGUCUGUGGCUAGACUGCA,0.02
13,GGUAGAGCUCAACACAGCCUGGCAGAGAGGCUGUGGUUAGACUGCC,0.01
14,GGUAGAAAUCAACACAGCGUGGCAAAGUGGCUGUGGCUAGACUUCC,0.34
15,GGUAGAGCACAACACAGCGUGCCAAAGUGGCUGUGGCUAGACUGCC,0.06
16,GGUAGAGCUCAACACAGCGUGGCAAAAUGGCUGUGGCCAGACUGCC,0.06
17,GGUAGAGCUCAACACAGCGUGGCAAAGUGCGGGUGGCUAGACUGCC,0.04
18,GGUAGAGCUCAACACAGCGUGGCAAAGUGGCCGUGGCUUGACUGCC,0.18
19,GGUAGAACUCAAAACAGCGUUGCAAAGUGCCUGUCGCCAGACUGCC,0.28

row,Variant,self-cleavage
1,GGUAGACCUCAACACACCGUGGCAAAGUGGGUUUGGUUAGACUGCC,0.05
2,GGCCGUGCUCAACACAGCGUGGCAAAGUCGCAGUGGCUAGAUUGCC,0.02
3,GGUAGAGCUCAACACAGCGCGGCAAAGUGGCUGUGGCUACACUGCC,0.07
4,GGUAUAGCUCAACACAGCGUGGCAAAUUGGCUGAGGCUAGACUGCC,0.05
5,GGUAGAGCUCAACACAGCGGGGCAAAUUGUCUGUGGCUAGACUGCA,0.62
6,GGUAUAGCUCAACACAGCGUGGCAAAGUGGCUGUGGCUAGACUGCU,0.04
7,GGUAGAGCUCAACACAGCGCGGCAAACUGGCUGUGGCUAGACUGCA,0.03
8,GGUAGAGCUCAACACAGCGUGGCAAAGUGGCAGUGGCUAGACUGCA,0.11
9,GGUAGAGCCCAACACAGCGUGGCAAAGGGGCUGUGCCUAGACUGCC,0.02
10,GGUAGAGCUCAACACAGCGUGGCAAAGUUGCUGUGGCUAGCCUGCC,0.19
11,GGUAGAGCUCAACACAACGUGGCACACUGGCUGUGGCUAGACUGCC,0.06
12,GGUAGAGCUCAACACAGCGUGGCAAAGUGGCUGUGUGUAGACUGCC,0.03
13,GGUAGAGCUCAACACAGCGUGGCAAAGUGGCUGUGUAUAGACUGCC,0.13
14,GGCCGCGCUCAACACAGCGUGGCAAAGUGGCUGUGGCUAGACCGCC,0.03
15,GGUAGAGCUCAACACAGCGUGGCAAAGUGGCUGUUUCUAGAAUGCC,0.31
16,GGUAGAGCUCAACACAGCGUGGCAAAGUGUUUGUGGCUAGACUGAC,0.16
17,GGUAGAACUCAACACAGCGUGGCAUAGUGGCUAUGGCUAGACUGCC,0.09
18,GGCCGUGCUCAACAAAGCGUGGCAAAGUGGCUGAGGCUAGACUGCC,0.11
19,GGUAGACCUCAACACAGCGUUGCAAAGUGGCUGUGGCUAGACCGCA,0.13

row,Variant,self-cleavage
1,GGUAGACCUCAACACAGCGUGGAAAAGAGGCUGUGGCUAGACUGCC,0.1
2,GGUAUAGCUCAACACAGCGUGUCAAAGUGGCUGUGGCUAGACUGCC,0.07
3,GGUAGAGCUCAACACAGCGUGGCAAAGUGGCUGUGGCGUGACUGCC,0.15
4,GGUAGACCUCAACACCGCGUGCCAAAGUGGCUGUGGCUAGACUGCC,0.04
5,GGUAGAGCCCAACACAGCGUUGCAAAGUGGCUGUGGCUAGACUGCU,0.01
6,GGUAGAGCUCAACACAGCGUGGCAAAGUGAGUGUGUCUAGACUGCC,0.08
7,GGUAUAAAUGAACACAGCGUGGCAAAUUGGCUGUCGCUAGACUGCC,0.03
8,GGUAGAGCUCAACACAGCGUUGCAUAGUGGCAGUGGCUAGACUGCC,0.06
9,GGUAGAGCUCAACACACCUUGGCAAAGUGGCUGUGGCUAGUCUGCC,0.08
10,GGUAGAGCUCAACACAGCGUGGCAAAUUGUCUGUGGCUAGACUGCC,0.55
11,GGUAGAGCUCAACACAGCGUGUCUAAGUGGCUGUGACUAGACUGCC,0.43
12,GGUAGAGCACAACACAGCGUCGCAAAGUGGCUGUGGCUGGACUGCC,0.05
13,GGUAGAGCUCAACACAGCGUGGCAAAGUGGCUGUGGCUAGACUUCG,0.06
14,GGUAGAGCUCAACACAACGUGGCAAAGUGGAUGUCGCUAGACUACC,0.02
15,GGUAGAGCACAACACAGCAUGGCAAAGUGGCUGUGGCUAGAAUGCC,0.04
16,GGUAGACCUCAACACAGCUUGGCAAAGUGACUGUGGCCAGACUGCC,0.14
17,GGUAGAGCUCAACACAGCGUGGCAAAGUGGCUAUGGCUAGACUGUC,0.07
18,GGCCGUGUUCAAGACAGCAUGGCAAAGUGGCUUUGGCUAGACUGCC,0.17
